{
  "source": "PubChem BioAssay AID488969",
  "about": "(Vanderbilt High Throughput Screening Facility, 2010)",
  "note": "The full ranking holds about 110,000 compounds; the median of “z-score” is about -0.1, and the highest 2% start at about 2. This is one part of the list.",
  "data": [
    {"target": "Metabotropic glutamate receptor 8 (Rattus norvegicus) (UniProt P70579)", "sequence (P70579 whole entry, looked up)": "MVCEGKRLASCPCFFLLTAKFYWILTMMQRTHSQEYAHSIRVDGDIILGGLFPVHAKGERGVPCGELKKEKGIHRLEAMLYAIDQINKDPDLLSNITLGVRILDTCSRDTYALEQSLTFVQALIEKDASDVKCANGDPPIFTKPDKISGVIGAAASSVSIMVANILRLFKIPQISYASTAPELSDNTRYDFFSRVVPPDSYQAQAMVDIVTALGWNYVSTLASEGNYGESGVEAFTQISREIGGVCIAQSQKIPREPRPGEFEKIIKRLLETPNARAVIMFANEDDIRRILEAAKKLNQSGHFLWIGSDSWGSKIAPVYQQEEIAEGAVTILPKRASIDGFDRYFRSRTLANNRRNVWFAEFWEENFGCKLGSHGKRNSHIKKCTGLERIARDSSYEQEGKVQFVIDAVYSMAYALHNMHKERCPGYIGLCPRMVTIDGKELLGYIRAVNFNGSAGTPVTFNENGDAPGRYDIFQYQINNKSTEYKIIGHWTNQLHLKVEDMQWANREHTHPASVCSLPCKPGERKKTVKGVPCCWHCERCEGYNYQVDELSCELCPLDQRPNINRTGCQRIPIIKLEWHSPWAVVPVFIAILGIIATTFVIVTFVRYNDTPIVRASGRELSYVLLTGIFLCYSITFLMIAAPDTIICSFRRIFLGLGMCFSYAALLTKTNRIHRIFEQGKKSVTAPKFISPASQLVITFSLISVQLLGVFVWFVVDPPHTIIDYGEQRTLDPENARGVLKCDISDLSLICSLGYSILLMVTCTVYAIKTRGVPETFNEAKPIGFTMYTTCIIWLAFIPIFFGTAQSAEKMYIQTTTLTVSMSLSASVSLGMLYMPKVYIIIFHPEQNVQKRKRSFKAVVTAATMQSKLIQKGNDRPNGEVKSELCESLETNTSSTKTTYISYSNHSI", "experiment": "rat mGluR8 modulators via GIRK flux, primary screen, cell-based, thallium flux, HTS (AID 488969)", "settings": "HEK293 rat mGluR8, GIRK (G protein-gated inwardly rectifying potassium channel) thallium flux, FluoZin2; at 10 µM; stronger effect = higher value; submaximal glutamate (EC20) added with thallium", "values": [
      {"smiles": "CCCCNC(=O)c1onc(CSc2cccc(OCC)c2)c1C(=O)O", "z-score": -0.682},
      {"smiles": "Cc1ccc(NC(=O)NNC(=O)c2cccs2)cc1", "z-score": 0.53},
      {"smiles": "O=C1c2ccccc2C(=O)N1CCC(c1ccccc1)c1ccco1", "note": "(stereo not given)", "z-score": -0.917},
      {"smiles": "COc1cc(C(=O)n2nc(C)cc2C)ccc1O", "z-score": 0.857},
      {"smiles": "COc1ccc(CCNC(=O)CNCC2CCCO2)cc1OC", "note": "(stereo not given)", "z-score": 0.933},
      {"smiles": "COc1ccccc1OCC(=O)N1CCNC1=O", "z-score": 0.0488},
      {"smiles": "O=C(Cn1c2ccccc2c(=O)c2ccccc21)N/N=C/c1ccc(N2CCCC2)c([N+](=O)[O-])c1", "z-score": -0.124},
      {"smiles": "Cc1ccc(NS(=O)(=O)c2ccc(OCC(=O)NCc3ccncc3)cc2)cc1", "z-score": -0.121},
      {"smiles": "COc1cc(OC)cc(C(=O)Nc2ccc(S(=O)(=O)N(C)C)cc2)c1", "z-score": -0.565},
      {"smiles": "c1ccc(CNc2c3c(nc4ncnn24)CCCC3)nc1", "z-score": 0.075},
      {"smiles": "COc1ccccc1C/C(N)=N/OC(=O)COc1ccc2ccccc2c1", "z-score": -0.0605},
      {"smiles": "N#Cc1ccc(-c2ccc(F)cc2)nc1SCC(=O)Nc1sc2c(c1C#N)CCC2", "z-score": 0.116},
      {"smiles": "Cc1ccc(-c2cc(C#N)c(=O)n(Cc3c(Cl)cccc3Cl)c2)cc1", "z-score": -0.0931},
      {"smiles": "COc1ccc(S(=O)(=O)Nc2cc([N+](=O)[O-])ccc2OC)cc1", "z-score": -0.0521},
      {"smiles": "CCCCOc1ccc(C(=O)Nc2ccc(N3CCN(C)CC3)cc2)cc1", "z-score": 0.256},
      {"smiles": "Cc1ccc(-n2nc(C(=O)O)c3ccccc3c2=O)cc1C", "z-score": -2.04},
      {"smiles": "CC(=O)Nc1cccc(OC(=O)c2ccoc2C)c1", "z-score": -0.306},
      {"smiles": "COC(=O)c1c(Oc2nc(OC)cc(OC)n2)cccc1Oc1nc(OC)cc(OC)n1", "z-score": -0.252},
      {"smiles": "O=C(Nc1ccccc1N1CCCCC1)c1ncoc1-c1ccc(F)cc1", "z-score": 0.16},
      {"smiles": "O=C(Nc1ccc(Cl)cc1)/C(=C/c1cccc(O)c1)c1nc2ccccc2s1", "z-score": -1.57},
      {"smiles": "Cc1ccccc1NC(=O)Cc1nnc(SCC(=O)N2CCN(c3ccccc3)CC2)n1C", "z-score": -0.143},
      {"smiles": "COc1ccc(-c2nnc(SCC(=O)Nc3cc(C)on3)n2C)cc1OC", "z-score": -0.484},
      {"smiles": "CN1c2ccccc2C(O)=C(C(=S)Nc2ccc(Cl)cc2)S1(=O)=O", "z-score": 1.19},
      {"smiles": "O=C(CSCCN1C(=O)c2ccccc2C1=O)Nc1ccc2ccccc2c1", "z-score": -0.224},
      {"smiles": "O=C(NCC1OCCc2ccccc21)c1ccco1", "note": "(stereo not given)", "z-score": 0.257},
      {"smiles": "CC1=C(C(=O)Nc2ccccc2Cl)C(c2ccc(N(C)C)cc2)NC(=O)N1", "note": "(stereo not given)", "z-score": -0.0926},
      {"smiles": "Cc1ccc(SCC(=O)Nc2cccc(NC(=O)c3ccco3)c2)cc1", "z-score": -0.457},
      {"smiles": "CC(C)(C)C(=O)NC(=S)Nc1sc2c(c1C#N)CCCCC2", "z-score": -0.0826},
      {"smiles": "CCCC(=O)N1CCCC(c2nc(-c3cccs3)no2)C1", "note": "(stereo not given)", "z-score": 0.068},
      {"smiles": "CCCOC(=O)c1c(NC(=O)CSc2nc(-c3ccco3)cc(C(F)(F)F)n2)sc(C(=O)OC)c1C", "z-score": 0.188}
    ]}
  ]
}
